Experimental data reported in article PMC6454211 (Biochemistry, 2018).

Biological target: Calmodulin (human full-length CaM, Ca2+-loaded) (human, UniProt P0DP23)
Test: cross-linking

B1: p85α cSH2 domain V663K/V667N ([…]) (domain or fragment)
chain: not shown
B1: binds.
